In the supplement of paper PMC8728848:
This is one part of the list.

Legend:
Experiment in all cases: glycan array binding signal (z-score within array); higher = stronger binding
Details in all cases: glycan notation: IUPAC condensed, linker removed
Neu5Ac(a2-8)Neu5Ac = target: Neu5Ac(a2-8)Neu5Ac
Method in brief: (§1)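 The Consortium for Functional Glycomics database supplied 3228 glycan arrays, of which those lacking an available protein sequence were dropped. The binding signal, a within-array Z-score, was averaged across arrays of the same protein sequence and across linkers. Negative scores can be read as non-binding.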

[1] = target: Neu5Ac(a2-8)Neu5Ac(a2-3)Gal(b1-3)GalNAc(b1-4)[Neu5Ac(a2-3)]Gal(b1-4)Glc
Method in brief: as §1

[2] = target: Neu5Ac(a2-8)Neu5Ac(a2-3)Gal(b1-3)GalNAc(b1-4)[Neu5Ac(a2-8)Neu5Ac(a2-3)]Gal(b1-4)Glc
Method in brief: as §1

[3] = target: Neu5Ac(a2-8)Neu5Ac(a2-3)Gal(b1-4)Glc
Method in brief: as §1

[4] = target: Neu5Ac(a2-8)Neu5Ac(a2-3)Gal(b1-4)GlcNAc
Method in brief: as §1

[5] = target: Neu5Ac(a2-8)Neu5Ac(a2-3)[Gal(b1-3)GalNAc(b1-4)]Gal(b1-4)Glc
Method in brief: as §1

[6] = target: Neu5Ac(a2-8)Neu5Ac(a2-3)[GalNAc(b1-4)]Gal(b1-4)Glc
Method in brief: as §1

[7] = target: Neu5Ac(a2-8)Neu5Ac(a2-8)Neu5Ac
Method in brief: as §1

[8] = target: Neu5Ac(a2-8)Neu5Ac(a2-8)Neu5Ac(a2-3)Gal(b1-4)Glc
Method in brief: as §1

[9] = target: Neu5Ac(a2-8)Neu5Ac(a2-8)Neu5Ac(a2-3)[Gal(b1-3)GalNAc(b1-4)]Gal(b1-4)Glc
Method in brief: as §1

[10] = target: Neu5Ac(a2-8)Neu5Ac(a2-8)Neu5Ac(a2-3)[GalNAc(b1-4)]Gal(b1-4)Glc
Method in brief: as §1

[11] = target: Neu5Ac(a2-8)Neu5Ac(a2-8)Neu5Ac(a2-8)Neu5Ac(a2-3)[GalNAc(b1-4)]Gal(b1-4)Glc
Method in brief: as §1

[12] = target: Neu5Ac(a2-8)Neu5Gc(a2-3)Gal(b1-4)GlcNAc
Method in brief: as §1

[13] = target: Neu5Ac(b2-6)Gal(b1-4)GlcNAc
Method in brief: as §1

Neu5Ac(b2-6)GalNAc = target: Neu5Ac(b2-6)GalNAc
Method in brief: as §1

[14] = target: Neu5Ac9Ac(a2-3)Gal(b1-3)GlcNAc
Method in brief: as §1

[15] = target: Neu5Ac9Ac(a2-3)Gal(b1-4)GlcNAc
Method in brief: as §1

[16] = target: Neu5Ac9Ac(a2-6)Gal(b1-4)GlcNAc
Method in brief: as §1

[17] = target: Neu5Gc(a2-3)Gal(b1-3)GlcNAc
Method in brief: as §1

[18] = target: Neu5Gc(a2-3)Gal(b1-3)[Fuc(a1-4)]GlcNAc
Method in brief: as §1

Neu5Gc(a2-3)Gal(b1-4)Glc = target: Neu5Gc(a2-3)Gal(b1-4)Glc
Method in brief: as §1

[19] = target: Neu5Gc(a2-3)Gal(b1-4)GlcNAc
Method in brief: as §1

[20] = target: Neu5Gc(a2-3)Gal(b1-4)GlcNAc(b1-3)Gal(b1-4)GlcNAc(b1-2)Man(a1-3)[Neu5Gc(a2-3)Gal(b1-4)GlcNAc(b1-3)Gal(b1-4)GlcNAc(b1-2)Man(a1-6)]Man(b1-4)GlcNAc(b1-4)GlcNAc
Method in brief: as §1

[21] = target: Neu5Gc(a2-3)Gal(b1-4)[Fuc(a1-3)]GlcNAc
Method in brief: as §1

[22] = target: Neu5Gc(a2-6)Gal(b1-4)GlcNAc
Method in brief: as §1

Neu5Gc(a2-6)GalNAc = target: Neu5Gc(a2-6)GalNAc
Method in brief: as §1

[23] = target: Neu5Gc(a2-8)Neu5Ac(a2-3)Gal(b1-4)GlcNAc
Method in brief: as §1

[24] = target: Neu5Gc(a2-8)Neu5Gc(a2-3)Gal(b1-4)GlcNAc
Method in brief: as §1

[25] = target: Neu5Gc(a2-8)Neu5Gc(a2-3)Gal(b1-4)GlcNAc(b1-3)Gal(b1-4)GlcNAc
Method in brief: as §1

[26] = target: Neu5Gc(a2-8)Neu5Gc(a2-6)Gal(b1-4)GlcNAc
Method in brief: as §1

[27] = target: Neu5Gc(b2-6)Gal(b1-4)GlcNAc
Method in brief: as §1

B1: PfulAvr4 2 (Pseudocercospora fuligena) (protein)
chain: HHHHHHDYKDDDDKAKPIKPFACPPKDFTTTKCQGPVDCLYANPLSCLGYIQCVCDDDACSTATPYAKSCPTGLAWVEKLKRCDGIKKSACPKKMYEGS
glycan array binding signal (z-score) (Neu5Ac(a2-8)Neu5Ac): -0.297 | glycan array binding signal (z-score) [1]: -0.14 | glycan array binding signal (z-score) [2]: 1.97 | glycan array binding signal (z-score) [3]: -0.324 | glycan array binding signal (z-score) [4]: -0.416 | glycan array binding signal (z-score) [5]: -0.259 | glycan array binding signal (z-score) [6]: -0.277 | glycan array binding signal (z-score) [7]: -0.178 | glycan array binding signal (z-score) [8]: -0.243 | glycan array binding signal (z-score) [9]: 0.31 | glycan array binding signal (z-score) [10]: -0.402 | glycan array binding signal (z-score) [11]: -0.421 | glycan array binding signal (z-score) [12]: -0.336 | glycan array binding signal (z-score) [13]: -0.388 | glycan array binding signal (z-score) (Neu5Ac(b2-6)GalNAc): -0.251 | glycan array binding signal (z-score) [14]: -0.251 | glycan array binding signal (z-score) [15]: -0.216 | glycan array binding signal (z-score) [16]: -0.113 | glycan array binding signal (z-score) [17]: -0.237 | glycan array binding signal (z-score) [18]: -0.204 | glycan array binding signal (z-score) (Neu5Gc(a2-3)Gal(b1-4)Glc): 0.244 | glycan array binding signal (z-score) [19]: -0.214 | glycan array binding signal (z-score) [20]: -0.009 | glycan array binding signal (z-score) [21]: -0.42 | glycan array binding signal (z-score) [22]: -0.322 | glycan array binding signal (z-score) (Neu5Gc(a2-6)GalNAc): -0.133 | glycan array binding signal (z-score) [23]: -0.356 | glycan array binding signal (z-score) [24]: -0.296 | glycan array binding signal (z-score) [25]: -0.236 | glycan array binding signal (z-score) [26]: -0.299 | glycan array binding signal (z-score) [27]: -0.18
